Data reported in the supplement of paper PMC10369915.
The other results are listed elsewhere or left out. Cut-off read from the data, not from the text of the source: active = 3.2 or more and inactive = the rest. The signal is at background level for most entries.

Target: SHP2 C-SH2 domain E139D
Assay: enrichment score (SH2-bound / input frequency) (ratio); bacterial display of known human phosphotyrosine sites (pTyr-Var adds point mutants) read by sequencing; higher = stronger binding; tyrosines were phosphorylated by kinases first
Details: peptide library: Human pTyr
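Note: displayed peptides selected on beads carrying the immobilized SH2 domain, with library peptides lacking any tyrosine serving as negative controls.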

Enrichment score, inactive:
DTSNFDDYEEEDIRV [KAPCB_HUMAN_331] 1.19
FTDEYQLYEDIGKGA [KCC2B_HUMAN_17] 0.837
SFDAILAYAQSGGRI [KCNA3_HUMAN_162_YA] 1.02
TELSWGAYDKASLYS [KCNN2_HUMAN_160] 0.927
TELSWGAYDKASLAS [KCNN2_HUMAN_160_YA] 0.559
WAAYYSHYYQQPPGP [KHSRP_HUMAN_583] 2.09
TSLWNPTYGSWFTEK [ALK_HUMAN_1507] 1.14
MKDPTNGYANVRAHE [KIRR1_HUMAN_605_YA] 1.39
ERTPYEAYDPIGKYA [KIRR1_HUMAN_724] 0.573
ERTPAEAYDPIGKAA [KIRR1_HUMAN_724_YA] 0.678
EEINGNNYVAIDPTQ [KIT_HUMAN_568_YA] 0.836
KGEELPTYEEAKAHS [AMOL2_HUMAN_107] 0.931
ELKGRGEYFAIKALK [KPCD_HUMAN_374] 1.33
KMKDGVVYVYPNEAA [AMPD1_HUMAN_249] 0.931
NNTTNRAYKEIPLSE [KPCD2_HUMAN_438_YA] 0.822
ADFQGFTYVNPDFVH [KPCG_HUMAN_675] 0.692
FASDPILYRPVAVAL [KPYM_HUMAN_105] 0.864
KMKDGVVYVAPNEAA [AMPD1_HUMAN_249_YA] 1.24

Target: SHP2 C-SH2 domain wild-type
Assay: as above
Details: peptide library: Human pTyr

Enrichment score, active:
MKDPTNGYANVRAHE [KIRR1_HUMAN_605_YA] 4.21

Enrichment score, inactive:
DTSNFDDYEEEDIRV [KAPCB_HUMAN_331] 1.16
FTDEYQLYEDIGKGA [KCC2B_HUMAN_17] 0.718
SFDAILAYAQSGGRI [KCNA3_HUMAN_162_YA] 0.777
TELSWGAYDKASLYS [KCNN2_HUMAN_160] 0.968
TELSWGAYDKASLAS [KCNN2_HUMAN_160_YA] 0.597
WAAYYSHYYQQPPGP [KHSRP_HUMAN_583] 2.12
TSLWNPTYGSWFTEK [ALK_HUMAN_1507] 0.955
ERTPYEAYDPIGKYA [KIRR1_HUMAN_724] 0.518
ERTPAEAYDPIGKAA [KIRR1_HUMAN_724_YA] 0.619
EEINGNNYVAIDPTQ [KIT_HUMAN_568_YA] 0.518
KGEELPTYEEAKAHS [AMOL2_HUMAN_107] 1.05
ELKGRGEYFAIKALK [KPCD_HUMAN_374] 1.44
KMKDGVVYVYPNEAA [AMPD1_HUMAN_249] 1.2
NNTTNRAYKEIPLSE [KPCD2_HUMAN_438_YA] 0.647
ADFQGFTYVNPDFVH [KPCG_HUMAN_675] 0.652
FASDPILYRPVAVAL [KPYM_HUMAN_105] 0.742
KMKDGVVYVAPNEAA [AMPD1_HUMAN_249_YA] 1.08

Target: SHP2 N-SH2 domain L43F
Assay: as above
Details: peptide library: Human pTyr

Enrichment score, inactive:
DTSNFDDYEEEDIRV [KAPCB_HUMAN_331] 1.39
FTDEYQLYEDIGKGA [KCC2B_HUMAN_17] 0.733
SFDAILAYAQSGGRI [KCNA3_HUMAN_162_YA] 0.857
TELSWGAYDKASLYS [KCNN2_HUMAN_160] 0.788
TELSWGAYDKASLAS [KCNN2_HUMAN_160_YA] 0.505
WAAYYSHYYQQPPGP [KHSRP_HUMAN_583] 2.23
TSLWNPTYGSWFTEK [ALK_HUMAN_1507] 0.945
MKDPTNGYANVRAHE [KIRR1_HUMAN_605_YA] 0.747
ERTPYEAYDPIGKYA [KIRR1_HUMAN_724] 0.684
ERTPAEAYDPIGKAA [KIRR1_HUMAN_724_YA] 0.791
EEINGNNYVAIDPTQ [KIT_HUMAN_568_YA] 0.726
KGEELPTYEEAKAHS [AMOL2_HUMAN_107] 0.94
ELKGRGEYFAIKALK [KPCD_HUMAN_374] 1.26
KMKDGVVYVYPNEAA [AMPD1_HUMAN_249] 0.894
NNTTNRAYKEIPLSE [KPCD2_HUMAN_438_YA] 0.746
ADFQGFTYVNPDFVH [KPCG_HUMAN_675] 0.946
FASDPILYRPVAVAL [KPYM_HUMAN_105] 0.802
KMKDGVVYVAPNEAA [AMPD1_HUMAN_249_YA] 0.912

Target: SHP2 N-SH2 domain T42A
Assay: as above
Details: peptide library: Human pTyr

Enrichment score, inactive:
DTSNFDDYEEEDIRV [KAPCB_HUMAN_331] 1.25
FTDEYQLYEDIGKGA [KCC2B_HUMAN_17] 0.69
SFDAILAYAQSGGRI [KCNA3_HUMAN_162_YA] 0.959
TELSWGAYDKASLYS [KCNN2_HUMAN_160] 0.712
TELSWGAYDKASLAS [KCNN2_HUMAN_160_YA] 0.596
WAAYYSHYYQQPPGP [KHSRP_HUMAN_583] 2.17
TSLWNPTYGSWFTEK [ALK_HUMAN_1507] 0.894
MKDPTNGYANVRAHE [KIRR1_HUMAN_605_YA] 0.688
ERTPYEAYDPIGKYA [KIRR1_HUMAN_724] 0.554
ERTPAEAYDPIGKAA [KIRR1_HUMAN_724_YA] 0.578
EEINGNNYVAIDPTQ [KIT_HUMAN_568_YA] 0.625
KGEELPTYEEAKAHS [AMOL2_HUMAN_107] 0.868
ELKGRGEYFAIKALK [KPCD_HUMAN_374] 1.29
KMKDGVVYVYPNEAA [AMPD1_HUMAN_249] 0.874
NNTTNRAYKEIPLSE [KPCD2_HUMAN_438_YA] 0.623
ADFQGFTYVNPDFVH [KPCG_HUMAN_675] 1.01
FASDPILYRPVAVAL [KPYM_HUMAN_105] 0.742
KMKDGVVYVAPNEAA [AMPD1_HUMAN_249_YA] 0.859

Target: SHP2 N-SH2 domain T52S
Assay: as above
Details: peptide library: Human pTyr

Enrichment score, inactive:
DTSNFDDYEEEDIRV [KAPCB_HUMAN_331] 1.55
FTDEYQLYEDIGKGA [KCC2B_HUMAN_17] 0.948
SFDAILAYAQSGGRI [KCNA3_HUMAN_162_YA] 0.87
TELSWGAYDKASLYS [KCNN2_HUMAN_160] 0.717
TELSWGAYDKASLAS [KCNN2_HUMAN_160_YA] 0.465
WAAYYSHYYQQPPGP [KHSRP_HUMAN_583] 2.35
TSLWNPTYGSWFTEK [ALK_HUMAN_1507] 1.31
MKDPTNGYANVRAHE [KIRR1_HUMAN_605_YA] 0.658
ERTPYEAYDPIGKYA [KIRR1_HUMAN_724] 0.52
ERTPAEAYDPIGKAA [KIRR1_HUMAN_724_YA] 0.661
EEINGNNYVAIDPTQ [KIT_HUMAN_568_YA] 0.654
KGEELPTYEEAKAHS [AMOL2_HUMAN_107] 0.835
ELKGRGEYFAIKALK [KPCD_HUMAN_374] 1.26
KMKDGVVYVYPNEAA [AMPD1_HUMAN_249] 0.895
NNTTNRAYKEIPLSE [KPCD2_HUMAN_438_YA] 0.801
ADFQGFTYVNPDFVH [KPCG_HUMAN_675] 1.15
FASDPILYRPVAVAL [KPYM_HUMAN_105] 0.804
KMKDGVVYVAPNEAA [AMPD1_HUMAN_249_YA] 0.955

Target: SHP2 N-SH2 domain wild-type
Assay: as above
Details: peptide library: Human pTyr

Enrichment score, inactive:
DTSNFDDYEEEDIRV [KAPCB_HUMAN_331] 1.39
FTDEYQLYEDIGKGA [KCC2B_HUMAN_17] 0.7
SFDAILAYAQSGGRI [KCNA3_HUMAN_162_YA] 1.07
TELSWGAYDKASLYS [KCNN2_HUMAN_160] 0.561
TELSWGAYDKASLAS [KCNN2_HUMAN_160_YA] 0.668
WAAYYSHYYQQPPGP [KHSRP_HUMAN_583] 2.81
TSLWNPTYGSWFTEK [ALK_HUMAN_1507] 0.974
MKDPTNGYANVRAHE [KIRR1_HUMAN_605_YA] 0.901
ERTPYEAYDPIGKYA [KIRR1_HUMAN_724] 0.639
ERTPAEAYDPIGKAA [KIRR1_HUMAN_724_YA] 0.629
EEINGNNYVAIDPTQ [KIT_HUMAN_568_YA] 0.627
KGEELPTYEEAKAHS [AMOL2_HUMAN_107] 0.808
ELKGRGEYFAIKALK [KPCD_HUMAN_374] 1.53
KMKDGVVYVYPNEAA [AMPD1_HUMAN_249] 0.79
NNTTNRAYKEIPLSE [KPCD2_HUMAN_438_YA] 0.634
ADFQGFTYVNPDFVH [KPCG_HUMAN_675] 0.906
FASDPILYRPVAVAL [KPYM_HUMAN_105] 0.974
KMKDGVVYVAPNEAA [AMPD1_HUMAN_249_YA] 1.2
